# From PubChem BioAssay AID1345083 (National Center for Advancing Translational Sciences (NCATS), 2018)
# Among all 94,000 compounds or so, about 6,200 (6.6%) were called active. Inconclusive means that the source gave no clear call. Such entries were picked first, then a sample of the others. Calls follow the shape of the dose curve; as a rule, active = well fitted inhibition curve with a large enough effect; inconclusive = small, poorly fitted or top-dose-only effect; inactive = flat fitted curve, though single readings scatter. Where the call is inconclusive, the potency comes from a doubtful curve fit.
# Test: Cytotoxic Profiling in HEK 293 Cell Line of Diverse Libraries Using Quantitative High-Throughput Screening; also: nearly all actives have a fitted effect of over 60% in size
# Conditions: HEK 293 viability, ATP luminescence (CellTiter-Glo), 48-72 h; series mostly up to 115 µM
# Procedure, shortened: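 Pintool-delivered compounds were incubated with HEK 293 cells (250 cells/well) at 37 degree Celsius for 48 or 72 hr. ATP-dependent luminescence (CellTiter-Glo) then reported remaining viable cells.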
# Potency is read from the fitted curve at half-maximal effect; tags tell the direction and shape of the fitted curve.
row,SMILES,Potency
1,CCC(C)Oc1ccc(CNC(=O)c2cn(CCN)nn2)cc1 (stereo not drawn),active: 31.6 µM
2,Cc1cc(C[C@@H]2COC[C@@H]2NC(=O)CN2CCN(c3ncccn3)CC2)on1,inactive
3,Cc1noc(C)c1C(=O)NC1CCCc2c1[nH]c1ccccc21 (stereo not drawn),"inconclusive: 56.2 µM [inhibitor, partial curve, poor fit]"
4,COc1ccc2cc(C3CN(Cc4cc5n(n4)CCNC5)CCO3)ccc2c1 (stereo not drawn),"inconclusive: 79.4 µM [inhibitor, partial curve, poor fit]"
5,O=C(Nc1cc(-c2cccnc2)nn1-c1ccccc1)c1cccc(Br)c1,active: 50.1 µM
6,CC(C)=CC(=O)N1CC[C@H](NC(=O)Nc2ccc(F)cc2F)[C@H]1C(=O)N[C@@H](Cc1cccs1)C(N)=O,inactive
7,COc1ccc(CN2C=C(C(=O)OCc3noc(-c4ccc(OC)cc4)n3)C(C)=NS2(=O)=O)cc1,"inconclusive: 17.8 µM [inhibitor, full curve]"
8,CN1Cc2ncnc(NCCc3ccccc3)c2CN(C2CCC2)C1=O,active: 63.1 µM
9,CCN(Cc1ccccc1)c1ncncc1-c1nc(-c2ccccc2)no1,active: 79.4 µM
10,COc1ccccc1C(=O)NC1CCN(c2cc(-c3cccs3)[nH]n2)C1 (stereo not drawn),"inconclusive: 56.2 µM [inhibitor, partial curve, poor fit]"
11,COc1cc(Cl)ccc1C(=O)NC1CCN(c2cc(-c3ccccc3)[nH]n2)CC1,"inconclusive: 56.2 µM [inhibitor, partial curve, poor fit]"
12,COc1cccc(C(=O)Nc2ccc3c(c2)CN(Cc2ccc(OC)cc2OC)C(=O)CO3)c1,"inconclusive: 89.1 µM [inhibitor, partial curve, poor fit]"
13,Cc1cccc(O[C@H]2COCCN(Cc3nccn3C)C2)n1,inactive
14,O=C(Nc1ccccc1F)N1CCC(N2C(=O)C3(CCCCC3)C2c2ccccc2)CC1 (stereo not drawn),"inconclusive: 79.4 µM [inhibitor, partial curve, poor fit]"
15,CSc1ccc(-c2ccccc2C=O)cc1,"inconclusive: 63.1 µM [inhibitor, full curve]"
16,COc1ccc(-c2cc(-c3ccncc3)c3cncn3c2)cc1OC,"inconclusive: 25.1 µM [inhibitor, full curve]"
17,CCOc1ccc2c(n1)CCN(C(=O)Nc1cccc(CC)c1)C2,"inconclusive: 44.7 µM [inhibitor, partial curve, poor fit]"
18,CN1c2cc(C(=O)Nc3ccc(Br)cc3)ccc2C(=O)N2CCCCC21 (stereo not drawn),"inconclusive: 50.1 µM [inhibitor, partial curve, poor fit]"
